# Assay results: the supplement of paper PMC7335073
# The full ranking holds about 4,100 sequences; the median of “relative CpG methylation activity (normalised to average over all NNNCGNNN flanks)” is about 0.87, and the highest 2% start at about 2.4. Some of the results follow.
# Target: DNMT3A catalytic domain (mouse) (UniProt O88508)
# Assay: relative CpG methylation activity (normalised to average over all NNNCGNNN flanks) (relative (1 = mean)); higher = more methylation of the central CpG
# Details: system: in vitro, murine catalytic domain; CpG state: hemimethylated substrate pool; residues: 608-908
# Procedure, shortened: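 Murine DNMT3A or DNMT3B catalytic domain methylated pooled dsDNA substrates, each carrying a central CpG within 10 random flanking nucleotides, with 0.8 mM S-adenosyl-L-methionine in HEPES pH 7.5 buffer at 37 °C for 60 min. Proteinase K treatment, BsaI-HFv2 digestion, hairpin ligation, bisulfite conversion and two-step PCR preceded Illumina sequencing. Relative methylation activity is the average methylation of a flanking context divided by the mean across all contexts, where a context spans three bases on each side, and every experiment was repeated twice independently.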
row,Sequence,relative CpG methylation activity
1,GGCCGTCC,0.962
2,AGTCGTAA,0.912
3,GCGCGTGA,0.76
4,TGTCGGCA,0.603
5,CTACGGTG,0.876
6,CATCGCGT,0.635
7,TGACGAGG,0.449
8,GGACGAGC,1.1
9,ACTCGGTA,0.639
10,TCTCGTCG,1.61
11,CTGCGCGT,0.921
12,TACCGTAG,0.669
13,CCTCGGCG,1.12
14,CACCGCGA,0.587
15,CAACGGTG,0.292
16,CGACGGCC,1.02
17,TGCCGTCG,1.29
18,GATCGCCC,1.22
19,TTACGTGT,1.22
20,ATGCGGGC,1.26
21,TGTCGTTA,0.321
22,CCACGTTG,0.694
23,TGTCGGGA,0.267
24,AGTCGCAG,0.342
25,TATCGGCA,1.02
26,ACTCGGAA,0.682
27,CGTCGCTC,1.71
28,CAACGGAT,0.676
29,GCACGGTC,2.01
30,TAGCGAAA,0.507
